Laboratory results taken from the supplement of paper PMC3334620.
In all, about 33,000 sequences were measured (“E-score (-0.5 to 0.5)”: median about -0.032, highest 2% from about 0.36 on). The list shows a part of the results.

Target: T1, Sko1 (UniProt Q02100)
T1 sequence: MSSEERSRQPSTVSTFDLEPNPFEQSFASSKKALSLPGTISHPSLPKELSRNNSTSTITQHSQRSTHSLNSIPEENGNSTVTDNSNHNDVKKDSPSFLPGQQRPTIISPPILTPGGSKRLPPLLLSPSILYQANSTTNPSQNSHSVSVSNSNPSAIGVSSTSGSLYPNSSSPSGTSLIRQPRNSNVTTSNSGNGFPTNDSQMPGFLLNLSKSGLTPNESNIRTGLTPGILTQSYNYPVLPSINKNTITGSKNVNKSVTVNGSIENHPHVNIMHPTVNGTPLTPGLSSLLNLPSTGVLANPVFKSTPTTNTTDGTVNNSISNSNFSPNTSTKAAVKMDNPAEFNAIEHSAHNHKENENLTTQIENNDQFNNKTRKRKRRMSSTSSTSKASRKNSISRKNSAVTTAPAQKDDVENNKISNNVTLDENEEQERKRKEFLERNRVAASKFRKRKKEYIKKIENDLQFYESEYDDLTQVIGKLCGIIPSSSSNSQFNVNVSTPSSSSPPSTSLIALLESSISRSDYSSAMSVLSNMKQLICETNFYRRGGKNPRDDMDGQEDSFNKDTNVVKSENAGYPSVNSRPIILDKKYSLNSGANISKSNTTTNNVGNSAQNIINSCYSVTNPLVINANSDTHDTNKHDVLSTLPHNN
Experiment: PBM E-score (8-mer binding enrichment) (E-score (-0.5 to 0.5)); higher = stronger / more preferred TF binding; most listed sequences are background and not binding sites
Settings: protein concentration: 200 nM; construct: GST-full length
Method in brief: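 Yeast transcription factors carrying a GST tag, as full-length proteins or DNA-binding domains, were produced by PURExpress in vitro transcription/translation. About 100-200 nM protein was applied to universal all-10-mer Agilent arrays, double-stranded by primer extension on fresh or once-stripped slides. Bound protein was detected with fluorescent anti-GST, and scans were normalised with masliner. The Universal PBM Analysis Suite gave each ungapped eight-base word, pooled with its reverse complement, an E-score, a modified Wilcoxon-Mann-Whitney statistic.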

Sequence	PBM E-score
ACCGAAGC	-0.195
ATCGCGCG	0.266
AGGCGACC	-0.133
GATCATCA	0.00452
ATCGATCA	0.116
TCACCTGA	-0.125
ACAGAAGT	0.0286
GCCAGCCC	-0.3
CCATGGAC	-0.0576
CCGTAAAC	0.104
ATGTGGGA	0.00803
GAACATTC	0.0331
AATTTGCG	0.164
GCTGTACA	-0.149
CGAGGGTC	-0.277
CTTGACAA	0.145
GAGGCGAA	-0.0469
GGCCTGAC	-0.172
ACATTAGG	-0.00072
GACAAGCA	-0.178
GAGCGAGA	-0.0193
ATTCTTTC	0.0405
AAGCTCGT	0.136
CACTGGAA	-0.0512
ACTGGAAA	0.046

Sequence	PBM E-score
AGTCGGCG	-0.0458
GAAGTTTA	0.133
ACTCGTGC	-0.0767
GAGGGATC	-0.259
GACGACTC	-0.0544
ACCTTAGT	-0.00136
CCCAACGA	0.0655
CCAACGCA	0.117
TAAGCAGA	-0.00339
AGACCTCA	-0.097
AGGACTCA	0.0831
AACCTGAC	0.0465
AGGTACTC	-0.109
ACCTGCGG	-0.343
CGCATGCC	0.108
CACGATCA	0.185
AATGTCCT	-0.0112
ATGGCTCA	-0.0823
AGCTGAAA	0.0355
GTAGGCCA	-0.0444
CAGTGGCG	-0.0659
AGATGCTC	-0.106
ACGTGTTG	0.426
CGTCCCAG	-0.111
CGACATAA	0.226

Sequence	PBM E-score
GAAGTTGC	-0.0684
ACCGATGG	-0.0547
AGCTATAC	0.0268
CTCGCAGC	-0.155
GATAACAA	-0.00192
GATGGCCC	-0.0912
GAAGACTA	-0.0637
GCTACTTA	0.0424
ATGGCGTA	0.449
ACTAACGG	-0.113
AGGGTGGC	-0.298
CGCTCGAG	0.021
CATGGTGA	0.135
GCGTCCCC	-0.303
GACTGAGA	0.019
CTACTCCA	-0.163
ACTCGCCT	-0.196
ACCGACCT	-0.192
CTCCACGC	-0.122
CCCTAGTA	-0.103
CTACCTAA	0.155
GACTCTGC	-0.212
GGAATGTA	-0.152
AAAACTAC	0.193
AGCTGGAC	-0.118

Sequence	PBM E-score
CTTTGGCA	-0.314
GGGCCAAC	-0.233
AAAAGGAA	0.012
AACAGGAT	-0.0732
CCAATGTC	0.059
ACCGGACC	-0.144
CATGGCTC	-0.0291
GGTCAAAA	0.096
CCCAGGGC	-0.357
CATGTGAA	-0.026
CTCCAGAG	-0.282
GTGACATA	0.381
AGGACTGG	-0.19
CCTCCTAG	-0.195
GGGTGTAA	-0.127
ACCAAGGG	-0.127
AATTCAAA	0.193
AGGGTGCC	-0.328
GGTCGCGA	-0.0404
ATAGTCAA	-0.0272
ACGGACAT	-0.0219
CACAAAGG	0.0434
AGCAGACA	-0.253
CCCAGTCC	-0.295
CCACAGCC	-0.309

Sequence	PBM E-score
CCCACTGA	-0.268
ATCACAAT	0.143
CACGGAAA	0.0747
TAGATGGA	-0.02
GAGTCCGC	-0.271
GTAGAATA	0.172
GGACGCAC	0.018
ACGTGACG	0.462
CTAGCAAC	0.0659
TCCACGCA	0.185
ACACGAAT	0.233
GTATCGGA	0.0853
CAGCTCGG	-0.202
AACCTAAT	0.104
AAGCCAGA	-0.184
AATATGAA	0.193
CTGCCTGA	0.0683
ACTACCGA	-0.221
ATTCCGCG	0.057
GCGCCCGA	-0.065
AGTTTTAG	0.0986
GTTACTTA	0.158
AAGACGCA	0.135
TAGCGACA	0.11
CACCAGAG	-0.304

Sequence	PBM E-score
AAATAAGG	0.112
AGCTCCAC	-0.224
ACACGATG	0.115
AGGAAGAC	-0.132
ACGCCTCA	-0.0263
ATCGGCGC	-0.076
GCATTAAC	0.13
GGTATAAC	0.113
TCGGGGCA	-0.286
TCATCGGA	0.13
CCAGAAGG	-0.164
GTGCTTAA	0.0867
CGCTAACC	-0.187
TAGGATAA	0.0472
ATCGTCAC	0.385
ACATTTTC	0.127
GACCTCCC	-0.323
GGACATGA	-0.0394
ATCCTAAA	-0.0168
GCAAGTCA	0.00337
ACTGACAA	0.16
ACAACTAA	0.161
ACCTAATA	0.254
CAGGCTGC	-0.2
GTATTAAA	0.273

Sequence	PBM E-score
CCTAACAA	0.142
CATCGCTC	-0.245
TAACGGTA	0.0311
TACTTTGA	0.116
GGGTCCGA	-0.168
CCTGATAA	0.0531
CCCCTAAA	-0.29
GGATCGCA	-0.0421
CCAGGAGA	-0.229
CATGGAGA	0.0682
AATGCGGG	0.00457
CAGACATC	-0.0501
ATGGAAGC	0.0161
ATTAGGAG	0.137
ACAGTGAT	0.131
CCGATAAC	0.0795
GTTTTGAA	0.111
GGCGGTAA	-0.137
AAGGTTCC	-0.175
CCAAGTGA	-0.0287
ATCGCACC	-0.0981
GGCGTACC	-0.0685
